# Paper PMC4336329 (PLoS ONE, 2015)
# Among all 310,000 compounds or so, about 2,200 (0.71%) showed an effect of 50% or more. The effect is printed as a negative number. The list shows a part of the results.
# Target: human ether-à-go-go-related gene (hERG) potassium channel (human, UniProt Q12809)
# Test: primary screen, population patch clamp on CHO cells stably expressing hERG
# Chain of human ether-à-go-go-related gene (hERG) potassium channel (Q12809 whole entry, looked up): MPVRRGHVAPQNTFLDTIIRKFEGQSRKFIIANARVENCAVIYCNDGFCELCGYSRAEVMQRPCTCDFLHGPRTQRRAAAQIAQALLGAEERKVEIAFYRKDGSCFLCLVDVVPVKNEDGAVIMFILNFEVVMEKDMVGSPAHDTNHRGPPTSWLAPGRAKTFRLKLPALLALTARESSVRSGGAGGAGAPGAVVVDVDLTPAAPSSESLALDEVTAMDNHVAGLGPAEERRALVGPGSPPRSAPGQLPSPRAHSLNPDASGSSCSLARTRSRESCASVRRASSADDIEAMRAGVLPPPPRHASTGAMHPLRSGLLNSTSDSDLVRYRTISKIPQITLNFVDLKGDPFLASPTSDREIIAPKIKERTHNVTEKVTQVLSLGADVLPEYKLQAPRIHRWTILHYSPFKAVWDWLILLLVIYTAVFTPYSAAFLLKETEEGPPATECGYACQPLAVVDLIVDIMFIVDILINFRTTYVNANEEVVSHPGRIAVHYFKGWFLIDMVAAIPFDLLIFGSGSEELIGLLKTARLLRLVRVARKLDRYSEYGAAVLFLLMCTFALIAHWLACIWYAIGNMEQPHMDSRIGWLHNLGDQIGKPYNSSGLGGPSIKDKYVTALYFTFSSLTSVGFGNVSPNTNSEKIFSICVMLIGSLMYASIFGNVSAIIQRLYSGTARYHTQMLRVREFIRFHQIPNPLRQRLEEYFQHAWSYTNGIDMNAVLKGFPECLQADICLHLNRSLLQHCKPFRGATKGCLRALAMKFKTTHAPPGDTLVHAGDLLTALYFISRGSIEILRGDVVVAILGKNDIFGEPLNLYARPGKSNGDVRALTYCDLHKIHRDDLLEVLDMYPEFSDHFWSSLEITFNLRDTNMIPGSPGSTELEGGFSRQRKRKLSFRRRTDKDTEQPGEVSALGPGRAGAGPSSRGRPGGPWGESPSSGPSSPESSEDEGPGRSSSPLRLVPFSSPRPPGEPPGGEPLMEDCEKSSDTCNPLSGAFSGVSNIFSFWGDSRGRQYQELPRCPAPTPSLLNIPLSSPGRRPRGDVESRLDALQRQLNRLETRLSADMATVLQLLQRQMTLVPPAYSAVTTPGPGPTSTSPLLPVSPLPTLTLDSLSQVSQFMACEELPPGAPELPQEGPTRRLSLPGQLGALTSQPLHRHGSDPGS
row,Structure (SMILES),"hERG current change (%, negative = inhibition) at 1uM [%]"
1,O=c1[nH]n2c(-c3ccccc3)nc(O)c2c2ccccc12,-3.38
2,COc1ccc(C2=NOC(c3nnc(-c4ccccc4)o3)C2)cc1 (centres unmarked),12.5
3,Cc1cc(NC(=O)COC(=O)C2CCN(S(=O)(=O)c3ccc(Cl)cc3)CC2)no1,13.4
4,CS(=O)(=O)N(Cc1ccccc1)c1ccc(C(=O)NCc2ccccc2)cc1,20.1
5,O=C(O)CCC(=O)N1CCN(c2ncccn2)CC1,16.3
6,COc1ccc(C2(CNC(C)=O)CCCC2)cc1OC,6.75
7,O=C(Nc1ccc(Cl)c(Cl)c1)Nc1cc(C(=O)NC2CC2)ccc1Cl,8.3
8,COc1ccccc1NC(=S)N1CC(C)OC(C)C1 (centres unmarked),13.6
9,O=C(CSc1cccc[n+]1[O-])Nc1cc2c(cc1Cl)C(=O)c1ccccc1C2=O,8.33
10,Cc1ccc(S(=O)(=O)c2c(C)cc(C)[nH]c2=O)cc1,19.5
11,COc1ccc(CNC(=O)c2cnc3scc(C)n3c2=O)cc1,-2.45
12,COc1cc(Cn2nnc3ccccc32)cc(Br)c1O,7.6
13,O=C(c1cc([N+](=O)[O-])cc([N+](=O)[O-])c1)N(Cc1nnc(-c2ccccc2Cl)o1)C1CC1,3.67
14,Cc1ccc(C)c(Nc2nc3ccccc3n3cnnc23)c1,6.83
15,COc1cc(NS(=O)(=O)c2ccc(OC)c(OC)c2)cc(OC)c1,6.27
16,CCOC(=O)C1CCN(C(=O)c2cccc(C(=O)N3CCC(C(=O)OCC)CC3)c2)CC1,10
17,CC(/C=C1\SC(=S)N(CC(=O)N2CCN(c3ccccc3)CC2)C1=O)=C\c1ccccc1,2.67
18,COc1ccc(/C=N/NC(=O)c2c(C)nc3ccccn23)cc1[N+](=O)[O-],13.7
19,CC(/C=N/n1c(-c2cccnc2)n[nH]c1=S)=C\c1ccccc1,-0.374
20,Cc1c(NC(=O)c2ccccc2NS(=O)(=O)c2ccc(Br)cc2)c(=O)n(-c2ccccc2)n1C,3.92
21,Cc1[nH]c2ccccc2c1C(=O)CN1C(=O)C(=O)N(CCC2=CCCCC2)C1=O,12.1
22,Cc1cnc(CN(C)Cc2c(C(=O)N3CCc4ccccc4C3)nc3ccc(Cl)cn23)[nH]1,-12.4
23,Oc1ccc(N2CCN(C(=S)NCCc3ccccc3)CC2)cc1,3.64

row,Structure (SMILES),"hERG current change (%, negative = inhibition) at 1uM [%]"
1,CCN(CC(=O)Nc1ccc(NC(C)=O)cc1)C(=O)CSC(=S)N1CCCC1,15.1
2,COCCN(C(=O)CN1CCN(S(=O)(=O)c2ccc(F)cc2)CC1)c1c(N)n(Cc2ccccc2)c(=O)[nH]c1=O,14.5
3,Cn1c(C(=O)N[C@@H](Cc2ccccc2)C(=O)NCCC(=O)O)cc2cc(Cl)ccc21,14.1
4,O=C(Nc1ccc(C(F)(F)F)cc1)c1ccc2nc[nH]c2c1,14.1
5,Cc1cccc(CC(=O)N2CCN(C(=O)c3ccco3)CC2)c1,5.56
6,CCOC(=O)c1c(S(=O)(=O)NCC(=O)Nc2cccc(F)c2)c(C)n(C)c1C,10.8
7,O=C(CNC(=O)N1CC(=O)Nc2ccccc21)NCCc1ccc(Cl)cc1,13.5
8,CCCC(=O)N(c1ccc(C(=O)O)cc1)c1nc(-c2ccccc2)c(C)s1,7.28
9,CC(NC(=O)c1ccc2c(c1)OCCO2)c1ccc(S(N)(=O)=O)cc1 (centres unmarked),-3.42
10,COc1cc(NC(=O)c2cccc(Cl)c2)c(OC)cc1NC(=O)CN1CCCCC1,11.7
11,CCn1cc(CNC(=O)CCc2ccc(OC)cc2)cn1,6.08
12,CO/N=C/c1ccc(N2CCOCC2)c([N+](=O)[O-])c1,12.5
13,Cc1ccnc(NC(=O)c2cc(S(=O)(=O)NCc3ccccc3)ccc2C)c1,4.6
14,Cc1cccc(NC(=O)NNC(=O)c2c(Cl)c(C)nn2C)c1,12.3
15,COc1ccc(N2CCN(C(=O)CSc3nnnn3-c3ccc4c(c3)OCCO4)CC2)cc1,-0.828
16,O=C(Nc1ccon1)Nc1cccc(Cl)c1Cl,9.81
17,O=c1cccc2n1CC1CNCC2C1 (centres unmarked),23.1
18,COc1ccc(NCC(O)COc2ccc(C(C)(C)C)cc2)cc1 (centres unmarked),5.45
19,O=S(=O)(c1ccc2c(c1)OCCO2)N1CCN(Cc2ccc3c(c2)OCO3)CC1,4.33
20,Cc1n[nH]c(C)c1CCN(C)C(=O)C1CCC(=O)N(CC2CCCCC2)C1 (centres unmarked),16.3
21,Cc1ccc(C)c(/C(O)=C2/C(=O)C(=O)N(CCN3CCOCC3)C2c2ccc(C)o2)c1 (centres unmarked),4.04
22,CN1c2ccsc2C(O)=C(C(=O)Nc2ccccc2)S1(=O)=O,6.45
23,COc1ccc(NC(=O)CNS(=O)(=O)c2cccc3nonc23)c(OC)c1,-1.08

row,Structure (SMILES),"hERG current change (%, negative = inhibition) at 1uM [%]"
1,COc1cc(C2C(C#N)=C(C)NC3=C2C(=O)c2ccccc23)cc(OC)c1OC (centres unmarked),16
2,CC(C)(C)c1ccc(C(=O)NNC(=O)c2ccc(Cl)cc2)cc1,4.09
3,COc1ccc(C(C(=O)NC2CCCC2)N(Cc2ccc(F)cc2)C(=O)c2ccn[nH]2)cc1OC (centres unmarked),11.6
4,Cc1ccc(-c2ccc(CCC(=O)O)n2CC2CCCO2)cc1 (centres unmarked),13.6
5,CC1C/C(=C/c2ccco2)C(=O)/C(=C/c2ccco2)C1 (centres unmarked),13.6
6,CCNS(=O)(=O)c1ccc(NS(C)(=O)=O)cc1,4.47
7,Cc1nc2cc(O)ccc2n1C,14.7
8,O=C(CN1CCSCC1)N/N=C/c1ccc(F)c(F)c1,-3.11
9,CC(=O)Nc1ccc(NC(=O)C(C)OC(=O)c2cccc(S(=O)(=O)N3CCCC3)c2)cc1 (centres unmarked),9.69
10,CN(CC(=O)Nc1cccc(F)c1)C(=O)c1sc2ccccc2c1Cl,-6.05
11,CCOC(=O)C1CCCN(C(=O)COc2ccccc2F)C1 (centres unmarked),18
12,CCCCn1c(-c2ccco2)n[nH]c1=S,12.2
13,CN1C(=O)c2ccccc2C(C(=O)O)C1c1cccc(Cl)c1 (centres unmarked),8.65
14,O=C1COc2ccc(C(=O)c3ccccc3C(=O)NCc3ccccc3)cc2N1,5.86
15,Cc1ccc(C)c(NC(=O)Cn2ccn(-c3ccc4c(c3)OCO4)c(=O)c2=O)c1,8.45
16,COc1ccccc1CNC(=O)COC(=O)c1cnccn1,9.09
17,Cc1nc(CC(=O)N2CCN(c3cccc(C)c3C)CC2)cs1,-2.55
18,COc1ccc(CC(=O)OCC(=O)NC(=O)NC23CC4CC(CC(C4)C2)C3)cc1,-8.5
19,CC1CCCC(NC(=O)CN(C)S(=O)(=O)c2cnc[nH]2)C1C (centres unmarked),4.93
20,COc1ccccc1N1CCN(/N=C/c2cccc(O)c2)CC1,15.7
21,S=C(NCCCN1CCOCC1)Nc1ccc(Nc2ccccc2)cc1,13.5
22,CC(C)CCC1(CN2CCCC2=O)C(=O)NC(=O)NC1=O,14.8
23,COc1ccc(OCC(=O)OCCNC(=O)c2cccnc2)cc1.Cl,14.7

row,Structure (SMILES),"hERG current change (%, negative = inhibition) at 1uM [%]"
1,CCOc1cc(S(=O)(=O)NC2CCCC2)ccc1Cl,16.3
2,CCOc1ccccc1N1CCN(C(=O)Cc2ccc(S(=O)(=O)N3CCOCC3)s2)CC1,-8.55
3,c1ccc(COc2nsnc2N2CCOCC2)cc1,7.91
4,c1ccc(-c2ccc(OCCCn3cncn3)cc2)cc1,-7.58
5,COc1ccc(CCNC2CCCCC2)cc1OC.Cl,9.2
6,CCc1nc(SCC(=O)Nc2nnc(CC(C)C)s2)n[nH]1,19
7,Cc1cc(C)c(NC(=O)CNC(=O)c2ccc(-n3cncn3)c([N+](=O)[O-])c2)c(C)c1,10.9
8,COc1ccccc1CNC(=O)C(=O)NCC(c1ccco1)N1CCOCC1 (centres unmarked),5.07
9,CN1CCN(C(=O)c2ccc3c(c2)NC(=O)C(C)(C)O3)CC1,-1.46
10,CN(Cc1ccccc1)S(=O)(=O)c1ccc(OCC(=O)N2CCOCC2)cc1,-0.797
11,CC1CCCN(C(=O)Cn2cnc3c2c(=O)n(C)c(=O)n3C)C1 (centres unmarked),12.7
12,CC(C)CCSc1nc2c(c(=O)[nH]c(=O)n2C)n1CCc1ccccc1,7.85
13,CC(C)NC(=O)NC(=O)CN1C(=O)NC2(CCc3ccccc3C2)C1=O (centres unmarked),4.4
14,O=C(CCN1CCCC1=O)NC1CCCc2c1cnn2-c1ccccc1F (centres unmarked),10.3
15,CCN1C(=O)c2cccc3c(S(=O)(=O)Nc4ccc(O)c(C(=O)O)c4)ccc1c23,18.7
16,Cc1ccc(NC(=S)NC(=O)c2ccc(-c3ccccc3)cc2)c(C)c1,10.1
17,O=C(COCc1cc(-c2ccc3c(c2)OCO3)on1)Nc1cccnc1Cl,12.1
18,O=C(c1ccco1)N1CCN(C(=S)Nc2cc(F)cc(F)c2)CC1,11.6
19,Cc1ccc(-c2nn(CCC(=O)O)cc2CCC(=O)O)cc1,10.3
20,O=C1c2ccccc2C(=O)c2c1cccc2N1CCOCC1,0.232
